Consider 167 variants from the RNAGym collection of RNA variant scans (doi:10.1093/nar/gkz1192).

The source gives no read counts; variants with many changes may rest on few reads.

The chains are these.
B1: CPEB3 Ribozyme (parent)
chain: UAACAGGGGGCCACAGCAGAAGCGUUCACGUCGCAGCCCCUGUCAGAUUCUGGUGAAUCUGCGAAUUCUGCUGUAUAUCUC

The variants in this data set derive from B1. As to the kind of experiment: self-cleavage, relative activity (ratio to wild type); higher = more cleavage; in vitro, sequencing. In a few lines: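 CPEB3 self-cleaving ribozyme mutant libraries were made by rounds of error-prone PCR, barcoded, and transcribed in vitro with T7 RNA polymerase for 5 hours at 37°C. Cleavage occurred during transcription and a 15 min DNase I step before EDTA stop. RNAs were reverse transcribed with template switching and Illumina-sequenced, with DNA sequencing mapping barcodes to variants. Relative activity is the variant's cleaved/total read fraction divided by wild type's (minimum 5 reads), averaged across three batches.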
In the case of A3G U49C U60C U67C U76C, the self-cleavage amounted to 0.08. Take A3G U31C A35U U54C U72C: the self-cleavage was 0.19. Then A3G U41A A56U, with 0.27; and A3G U41A A56G, with 0.51; and A3G U69C U80C, with 0.5.

As for A3G U31G A45U G52A, the self-cleavage worked out at 0.57. A3G U51A U69C: the self-cleavage came out at 0.83.

With A3U A5U A20G U48C U60C G63C A64U, the self-cleavage came out at 0.26. Take A3G U51C U66G: the self-cleavage was 0.61.

A3U A5G A13U A21G C23G A28G: the self-cleavage stood at 0.61. To A3G U49C U60G belongs 0.14.

For the variant A3G U60C A75U, the self-cleavage is 0.45. Take A3G U26A G30A U78C: the self-cleavage turned out to be 0.11.

As to A3U A15U U31G A64C A65G U78A, the self-cleavage stood at 0.08. As for A3G U54C G63A, the self-cleavage stood at 1. As for A3G U54C A56G U78C, the self-cleavage is 0.37. As to A3U A15U C38A U72C, the self-cleavage was 0.15.

With A3G U26C U49A U54C A64U, the self-cleavage stood at 0.25.

As to A3G U54C A57G U72A U78A U80A, the self-cleavage came to 1.15. To A3U A13G A28G belongs 0.6; to A3U A13G U26A U43G, 0.26. For A3G U26C U48A, the self-cleavage is 0.38.

A3U A13G A57G: the self-cleavage is 0.86. In the case of A3U A13G A20U G22A C38U U69C A75G, the self-cleavage worked out at 0. For the variant A3G U51C U67C, the self-cleavage is 0.46.

A3G U26C C39U U74C U80C: the self-cleavage was 0.71.

Consider A3U A18G U80A, for which the self-cleavage came out at 1.07.

Turning to A3G U31C U48A A56G U67C, the self-cleavage stood at 0.08. Take A3U A13G A45G A57G C62A A65G A75G: the self-cleavage turned out to be 0.15. On to A3U A5U U41A A65C, for which the self-cleavage stood at 0.25.

Consider A3G U66G U72G, for which the self-cleavage stood at 0.34. Turning to A3G U48C U49C, the self-cleavage was 0.46. To A3U A20G U26A U69C U80C belongs 0.25; to A3G U31G A65G, 0.36; to A3G U26C C62G U69A, 0.2. To A3G U49C U67A belongs 0.5; to A3U A13U G24A U69A, 0.3.

Regarding A3G U26G A35U C62U U76C, the self-cleavage amounted to 0.04. In the case of A3G U41C U78C, the self-cleavage was determined as 1.11.

Turning to A3G U26C A57G C68A U69G, the self-cleavage was 0.19. To A3U A15U U25C U60C A65G U74C U78A belongs 0.1. For the variant A3G U26C U31G A35G U51C A65G, the self-cleavage was 0.24. For the variant A3G U72A A75U, the self-cleavage came to 0.96.

As for A3G U41A U43A, the self-cleavage came out at 0.43. In the case of A3U A18U U43G U69C, the self-cleavage is 0.25. Then A3U A13U A28G C79A, with 1.12; and A3G U41C U51A, with 1.06; and A3U A15G A47G U51A A64U, with 0.3.

Regarding A3G U41C U69C U72A, the self-cleavage was found to be 0.43. Regarding A3U A5G C12U U31C U43A, the self-cleavage worked out at 0.7. As to A3U A15G U31C U43G A45U A56U, the self-cleavage is 0.15. In the case of A3U A18U A57G U66C U80A, the self-cleavage came to 0.35.

For A3U A20G A28U C29U, the self-cleavage was found to be 0.58. On to A3G U51C A56U U78C, for which the self-cleavage is 0.73. With A3G U26C C59G G61A U78C, the self-cleavage was 0.15. On to A3U A5G C23U G70A U72A U78C U80C, for which the self-cleavage turned out to be 0.04. A3G U48C U66G: the self-cleavage was found to be 0.25.

For A3G U66A A77G U80A, the self-cleavage was found to be 0.78.

For A3G U54A U60G, the self-cleavage worked out at 0.46. As to A3U A5G G63A U78C, the self-cleavage is 0.53. On to A3G U43C U49C U54C U60A, for which the self-cleavage came out at 0.22. To A3G U31C C40U C50U C62A U74A A75U belongs 0.18.

With A3G U31C U41A G53U A75G, the self-cleavage is 0.1.

For A3U A20G A21G G30C U31A U67C, the self-cleavage worked out at 0.37. Then A3U A5G G6A A35G C40U A56U U78C, with 0.17.

A3U A20G U51C: the self-cleavage stood at 0.83. Turning to A3U A18C U43C U54C A56G A75G, the self-cleavage worked out at 0.18. With A3U A5G U49C U67G, the self-cleavage was found to be 0.6. A3U A20G U43A: the self-cleavage came out at 0.77.

For the variant A3U A18G U25C U51A U66A U80C, the self-cleavage turned out to be 0.22. With A3U A15G A20G U41C A64G, the self-cleavage came out at 0.17. To A3U A15G U72C belongs 1.2; to A3U A20G A21U U54C A75G, 0.25.

Regarding A3G U26A A65U, the self-cleavage worked out at 0.49. For A3G U48C U72C U74A, the self-cleavage turned out to be 1.13. Regarding A3G U26C G30A G73U C79A, the self-cleavage came out at 0.55. As to A3U A5G C11A A18U C38G, the self-cleavage was 0.1.

With A3G U26C U54A A65G, the self-cleavage came out at 0.12. To A3G U41C A57G A65G belongs 0.3; to A3U A5G U25C A28G U41C A75G, 0.1; to A3G U31C G61C A77G, 0.22. To A3G U31A U51C U76A A77U belongs 0.29; to A3U A5G A15G U66C, 0.41. To A3U A18G A21G U31C U72C belongs 0.2. Turning to A3G U41C A56U U58C U66C, the self-cleavage worked out at 0.25.

Turning to A3G U26C C29U U41A U76A, the self-cleavage worked out at 0.1. A3U A20G U31C U51A U80C: the self-cleavage turned out to be 0.34. Consider A3G U31A A45C G63C U67A, for which the self-cleavage amounted to 0.03.

With A3U A15C A20G A64G, the self-cleavage is 0.56. Consider A3U A15U U31A, for which the self-cleavage amounted to 0.75. Then A3G U48C U80C, with 0.75. Regarding A3G U54A A56G U67A, the self-cleavage was 0.23.

Regarding A3U A20G U41A U66C, the self-cleavage turned out to be 0.38. Then A3G U41C A65G, with 0.72; and A3G U26C U58C U66C G73U U78A, with 0.1; and A3G U26C U80C, with 0.75.

As for A3U A5G U31A U66C U74C, the self-cleavage is 0.37. For A3G U54C U58C A75G, the self-cleavage is 0.59. As for A3G U41C G42U A45G A47G, the self-cleavage came out at 0.2.

In the case of A3G U26C A28G U31C C32A U54C U60C, the self-cleavage came to 0.13. For A3G U49C A57G A64G, the self-cleavage is 0.27. To A3U A13G U51A G53U belongs 1.12. To A3G U41A G46A A77G belongs 0.1; to A3U A18C U74G, 0.37. Consider A3G U74C U76C, for which the self-cleavage worked out at 1.18.

Turning to A3G U31G A57G, the self-cleavage was found to be 0.54. Regarding A3U A20G A45G G52A, the self-cleavage amounted to 0.93. On to A3U A18U U48A C59U U76C, for which the self-cleavage is 0.04. For A3G U49C A56G, the self-cleavage amounted to 0.94. As to A3U A18G A64U U69C, the self-cleavage amounted to 0.14. As to A3U A15G U25A, the self-cleavage stood at 0.29. Consider A3G U26C G42A U43A, for which the self-cleavage is 0.35. With A3G U41A U49A U58C, the self-cleavage came to 0.35.

A3G U51A A57G: the self-cleavage was determined as 0.5. Then A3G U31A G55U, with 0.56; and A3G U48C U58A U78G, with 0.11.

Turning to A3G U58C U67A U72C, the self-cleavage was 0.2. A3G U60C A65U: the self-cleavage was determined as 0.24.

On to A3G U41C G55A U58C, for which the self-cleavage amounted to 0.15. Take A3G U31G A65G U78C: the self-cleavage amounted to 0.22. Take A3U A13U C23A C44G U49C U51C: the self-cleavage was determined as 0.16. A3G U26C U41A A56U: the self-cleavage is 0.45. As for A3G U48C U51C U69C U74C, the self-cleavage was 0.24. A3G U54A A64U U69A: the self-cleavage came to 0.53. Then A3U A5G G30C U41C U48C A56G, with 0.09; and A3U A15U C27U A47G A57G U67C U72C, with 0.1. To A3U A5U A15G U41C U54C A65G C81U belongs 0.58; to A3G U60C U66C, 0.4; to A3G U41C U43C A56G, 0.74.

As for A3G U51A U76C, the self-cleavage is 1.17. To A3U A18U U26A U31A C40A U43C belongs 0.08; to A3U A13G U25A A35G A56C U58A, 0.07; to A3U A15G U69G, 0.48. Turning to A3G U41A U49C U60G, the self-cleavage came out at 0.4. Take A3G U48C A56G: the self-cleavage is 0.45.

As for A3G U26C A56G A64G A75G, the self-cleavage is 0.23. To A3G U51A A56U belongs 0.7; to A3U A15G U31C U80C, 0.8; to A3U A5G A13U U60C, 0.53. In the case of A3U A13G U43C A45G, the self-cleavage stood at 0.4. To A3G U41C U74A belongs 1.08; to A3G U41C U74C, 1.11. Turning to A3U A20G A47G, the self-cleavage stood at 0.65. For the variant A3U A5G A47G U49C, the self-cleavage came to 0.42. For A3G U41C A45G U51A G52A U72C, the self-cleavage stood at 0.4. In the case of A3U A15G U26C U31G U43A U67C, the self-cleavage stood at 0.07. For the variant A3U A13U A18U A56G U60C U67C U78A, the self-cleavage was determined as 0.23. A3G U31C C32A: the self-cleavage turned out to be 0.44. Turning to A3G U26A U41A, the self-cleavage is 0.49. Regarding A3G U60A U78C, the self-cleavage is 0.72. For the variant A3G U60A U78G, the self-cleavage was 0.81. Regarding A3G U31C G55U A64G U74A U78C, the self-cleavage was determined as 0.58. In the case of A3G U58A U60C U69A A75G, the self-cleavage was found to be 0.27. Turning to A3U A18U C32U A57U U60A, the self-cleavage came out at 0.3. Turning to A3G U31A U43C C62A, the self-cleavage is 0.21.

Regarding A3U A18U A20U A35G U49A U54C, the self-cleavage amounted to 0.19. For the variant A3G U41C U69A, the self-cleavage came out at 0.82. For A3G U54G A65G, the self-cleavage was 0.38.

For the variant A3U A5G A35U U60C A64G U74C U76C, the self-cleavage was found to be 0.16. Then A3U A13G C68U, with 0.86. A3G U26C A28G U31C: the self-cleavage stood at 0.03. To A3G U51A G52U U60A U66C belongs 0.35; to A3U A15G U76A, 0.69; to A3U A15G U76C, 1.06. A3U A15U U49G U58A: the self-cleavage came out at 0.13. In the case of A3U A15G A57G A64U U80C, the self-cleavage came to 0.17. With A3U A13G A56U, the self-cleavage stood at 0.58.
